Data as given in the supplement of paper PMC4967469.
By IC50 is meant the dose at which the fit gives 50% viability; a limit (>, <) means that the fit lies beyond the doses tested. AUC sums up the same curve from the lowest dose to the 256-fold higher top dose; the more sensitive the line, the further below 1. For some assays here: An inferred top dose was derived from the fitted curves, not read from the paper. For some assays here: Where an entry number is given, a second screen of the drug exists; the two often differ.

How the values were obtained:
Assay in all cases: Viability of human cancer cell lines after 72 h of drug (GDSC screen)
[1] = compound: CCNC(=O)c1noc(-c2cc(C(C)C)c(O)cc2O)c1-c1ccc(CN2CCOCC2)cc1 [AUY922]; conditions: top dose 0.256 µM; top dose inferred
Description: (§1)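 Human cancer cell lines in 384-well plates, medium with 10% serum, drug for 72 h over a 256-fold dose range (nine 2-fold or five 4-fold steps up to the top dose). Adherent lines were fixed and stained with the nucleic acid dye Syto60, suspension lines read with resazurin; signal relative to control wells, capped at 0 and 100%. One two-parameter sigmoid per drug and line, fitted in a mixed model over all curves with the slope shared within a line.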

[2] = compound: CC(O)(CS(=O)(=O)c1ccc(F)cc1)C(=O)Nc1ccc(C#N)c(C(F)(F)F)c1 [Bicalutamide]; conditions: top dose inferred
Description: as §1

[3] = compound: Cc1cn(-c2cc(NC(=O)c3ccc(C)c(Nc4nccc(-c5cccnc5)n4)c3)cc(C(F)(F)F)c2)cn1 [Nilotinib]; conditions: top dose 2 µM
Description: as §1

[4] = compound: S=C(NCc1ccc2c(c1)OCO2)N1CCN(c2ncnc3c2oc2ccccc23)CC1 [MP470]; conditions: top dose 20 µM; top dose inferred
Description: as §1

[5] = compound: C/C(O)=C(\C#N)C(=O)Nc1cc(Br)ccc1Br [LFM-A13]; conditions: top dose 16 µM; top dose inferred
Description: as §1

[6] = compound: Cc1ccc(Nc2cc(-c3cccc(N4C(=O)c5ccccc5C4=O)c3)ncn2)cc1NS(C)(=O)=O [KIN001-270]; conditions: top dose 20 µM; top dose inferred
Description: as §1

[7] = compound: Nc1ccn([C@@H]2O[C@H](CO)[C@@H](O)C2(F)F)c(=O)n1 [Gemcitabine]; conditions: top dose 1.024 µM
Description: as §1

[8] = compound: O=S(=O)(c1ccccc1)N(CC(F)(F)F)c1ccc(C(O)(C(F)(F)F)C(F)(F)F)cc1 [T0901317]; conditions: top dose 10.24 µM; top dose inferred
Description: as §1

[9] = compound: CC(C)c1ccccc1Cc1cc(C(=O)Nc2ccc(S(=O)(=O)c3ccccc3C(C)(C)C)cc2)c(O)c(O)c1O [TW-37]; conditions: top dose 5 µM
Description: as §1

[10] = top dose 1.024 µM, screen: GDSC drug entry 150
[11] = top dose 10 µM, screen: GDSC drug entry 1502

| Cell Line | AUC [1] | IC50 [1] | AUC [2, 10] | IC50 [2, 10] | AUC [2, 11] | IC50 [2, 11] | AUC [3] | IC50 [3] | AUC [4] | IC50 [4] | AUC [5] | IC50 [5] | AUC [6] | IC50 [6] | AUC [7] | IC50 [7] | AUC [8] | IC50 [8] | AUC [9] | IC50 [9] |
| --- | --- | --- | --- | --- | --- | --- | --- | --- | --- | --- | --- | --- | --- | --- | --- | --- | --- | --- | --- | --- |
| ACHN (kidney, adherent) | 0.52 | 18.3 nM | 0.983 | > 1020 nM | 0.952 | > 10000 nM | 0.932 | > 2000 nM | 0.916 | > 20000 nM | 0.97 | > 16000 nM | 0.977 | > 20000 nM | 0.048 | < 4 nM | 0.964 | > 10200 nM | 0.404 | 164 nM |
| SNU-182 (liver, adherent) | 0.645 | 41.1 nM | 0.986 | > 1020 nM | 0.979 | > 10000 nM | 0.967 | > 2000 nM | 0.952 | > 20000 nM | 0.977 | > 16000 nM | 0.98 | > 20000 nM | 0.282 | 15 nM | 0.976 | > 10200 nM | 0.482 | 278 nM |
| EFO-27 (ovary, adherent) | 0.466 | 12.6 nM | 0.981 | > 1020 nM | 0.926 | > 10000 nM | 0.977 | > 2000 nM | 0.936 | > 20000 nM | 0.971 | > 16000 nM | 0.978 | > 20000 nM | 0.337 | 20 nM | 0.981 | > 10200 nM | 0.381 | 135 nM |
| NCI-H2110 (non-small cell lung carcinoma, adherent) | 0.592 | 28.7 nM | 0.986 | > 1020 nM | 0.984 | > 10000 nM | 0.986 | > 2000 nM | 0.958 | > 20000 nM | 0.979 | > 16000 nM | 0.986 | > 20000 nM | 0.105 | < 4 nM | 0.985 | > 10200 nM | 0.761 | 1810 nM |
| NCI-H2227 (small cell lung carcinoma, semi-adherent) | 0.895 | > 256 nM | 0.985 | > 1020 nM | 0.98 | > 10000 nM | 0.986 | > 2000 nM | 0.94 | > 20000 nM | 0.986 | > 16000 nM | 0.98 | > 20000 nM | 0.97 | > 1020 nM | 0.986 | > 10200 nM | 0.653 | 880 nM |
| COLO-205 (large intestine, suspension) | 0.688 | 53.2 nM | 0.978 | > 1020 nM | 0.985 | > 10000 nM | 0.97 | > 2000 nM | 0.947 | > 20000 nM | 0.931 | > 16000 nM | 0.988 | > 20000 nM | 0.836 | 663 nM | 0.98 | > 10200 nM | 0.952 | > 5000 nM |
| SU-DHL-5 (B-cell lymphoma, suspension) | 0.434 | 11 nM | 0.994 | > 1020 nM | 0.87 | 5620 nM | 0.954 | > 2000 nM | 0.551 | 1670 nM | 0.992 | > 16000 nM | 0.894 | 13500 nM | 0.009 | < 4 nM | 0.985 | > 10200 nM | 0.373 | 153 nM |
| Ca-Ski (cervix, adherent) | 0.592 | 29.4 nM | 0.982 | > 1020 nM | 0.964 | > 10000 nM | 0.938 | > 2000 nM | 0.841 | 16400 nM | 0.945 | > 16000 nM | 0.959 | > 20000 nM | 0.258 | 11.8 nM | 0.967 | > 10200 nM | 0.518 | 352 nM |
| LOU-NH91 (lung squamous cell carcinoma, adherent) | 0.905 | > 256 nM | 0.985 | > 1020 nM | 0.981 | > 10000 nM | 0.986 | > 2000 nM | 0.982 | > 20000 nM | 0.966 | > 16000 nM | 0.986 | > 20000 nM | 0.932 | > 1020 nM | 0.983 | > 10200 nM | 0.496 | 305 nM |
| CHSA0108 (chondrosarcoma, adherent) | 0.982 | > 256 nM | 0.983 | > 1020 nM | 0.97 | > 10000 nM | 0.981 | > 2000 nM | 0.85 | 19000 nM | 0.976 | > 16000 nM | 0.984 | > 20000 nM | 0.939 | > 1020 nM | 0.968 | > 10200 nM | 0.573 | 510 nM |
| JHU-022 (head and neck, adherent) | 0.68 | 58.6 nM | 0.972 | > 1020 nM | 0.955 | > 10000 nM | 0.95 | > 2000 nM | 0.979 | > 20000 nM | 0.948 | > 16000 nM | 0.982 | > 20000 nM | 0.768 | 487 nM | 0.982 | > 10200 nM | 0.588 | 580 nM |
| OSC-20 (head and neck, adherent) | 0.488 | 14.8 nM | 0.977 | > 1020 nM | 0.927 | > 10000 nM | 0.969 | > 2000 nM | 0.948 | > 20000 nM | 0.971 | > 16000 nM | 0.975 | > 20000 nM | 0.234 | 9.13 nM | 0.975 | > 10200 nM | 0.673 | 1050 nM |
| Hs633T (fibrosarcoma, adherent) | 0.347 | 6.57 nM | 0.984 | > 1020 nM | 0.974 | > 10000 nM | 0.971 | > 2000 nM | 0.232 | 252 nM | 0.977 | > 16000 nM | 0.909 | 19000 nM | 0.048 | < 4 nM | 0.982 | > 10200 nM | 0.386 | 162 nM |
